Measured values as given in PubChem BioAssay AID1030 (National Center for Advancing Translational Sciences (NCATS), 2008).
“And” between values parts separate entries of the source, which are not always exact repeats. Equal values may be shown once. Hit rate of the full screen: of about 220,000 compounds, about 16,000 (7.3%) were called active. The inconclusive results got no clear call from the source; some entries with a clear call stand among them for comparison. The call rests on the fitted dose curve; in most records, active means well fitted inhibition curve with a large enough effect (not every such curve was filed as active); inconclusive means small, poorly fitted or top-dose-only effect, or another doubt; inactive means no such curve, though single readings can be large or run the other way. Potencies beside an inconclusive call are fits to weak or partial responses and may not hold up.

Each compound was assayed against Aldehyde dehydrogenase 1A1 (Homo sapiens) (UniProt P00352) (assay: qHTS Assay for Inhibitors of Aldehyde Dehydrogenase 1 (ALDH1A1)). Details: Purified ALDH1A1, NADH fluorescence, propionaldehyde substrate; series mostly up to 75.3 µM.
Potency means the concentration at half of the fitted maximal effect; tags describe the fitted curve by direction and shape.

UniProt P00352, sequence (P00352 whole entry, looked up): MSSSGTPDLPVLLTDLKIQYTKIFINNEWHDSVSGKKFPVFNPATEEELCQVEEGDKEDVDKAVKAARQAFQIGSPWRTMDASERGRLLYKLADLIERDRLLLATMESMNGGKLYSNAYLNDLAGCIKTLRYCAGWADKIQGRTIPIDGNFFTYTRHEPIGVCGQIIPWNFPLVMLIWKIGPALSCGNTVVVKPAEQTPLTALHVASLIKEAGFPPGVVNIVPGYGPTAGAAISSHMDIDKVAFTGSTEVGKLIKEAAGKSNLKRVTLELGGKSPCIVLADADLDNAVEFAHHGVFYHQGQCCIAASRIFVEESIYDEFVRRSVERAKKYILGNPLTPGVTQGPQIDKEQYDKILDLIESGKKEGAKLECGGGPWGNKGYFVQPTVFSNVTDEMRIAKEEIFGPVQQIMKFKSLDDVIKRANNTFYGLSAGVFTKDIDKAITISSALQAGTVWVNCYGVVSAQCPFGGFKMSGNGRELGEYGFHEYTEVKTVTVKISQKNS

Potency, active:
O=C(c1cccc(F)c1)N1CCc2ccccc2C1 14.1 µM
Cn1cccc1Cc1nnc(SCC(=O)Nc2ccc3c(c2)OCCO3)n1-c1ccc(F)cc1 20 µM
O=C(CCS(=O)(=O)c1ccc(Br)cc1)Nc1cc(F)ccc1F 22.4 µM
COC(=O)C1=C(C)Nc2[nH]c(=S)[nH]c(=O)c2C1c1ccc(O)cc1 (centres undefined) 23.8 µM
Cc1ccc(S(=O)(=O)Nc2cc(C)nn2-c2ccccc2)cc1 25.1 µM

Potency, inconclusive:
CC(C)c1nc2ccccn2c1NC1CCCCC1 35.5 µM [inhibitor, single point]
Fc1ccccc1C1CCN(Cc2nc(CC3CC3)no2)C1 (centres undefined) 39.8 µM [inhibitor, single point]
CC(C)(C)C(=O)Nc1sc2c(c1C(=O)Nc1ccccn1)CCCC2 39.8 µM [inhibitor, single point]
COc1cc2c(cc1OC)CN(CC(=O)NC(=O)NC1CCCCC1)CC2 10 µM [inhibitor, partial curve]
COC(=O)c1ccc(NC(=O)CCN2CCN(Cc3ccccc3)CC2)cc1 39.8 µM [inhibitor, single point]
CCOC(=O)C1CCCN(CC(=O)Nc2c(C(=O)OC)[nH]c3ccc(Cl)cc23)C1 (centres undefined) 39.8 µM [inhibitor, single point]
COCCn1c(=O)c(-c2ccc(Cl)cc2)nc2cnc(Nc3ccccc3)nc21 39.8 µM [inhibitor, single point]
Cc1ccc(C(=O)Nc2c(C(=O)N3CCOCC3)cnn2-c2ccccc2)cc1 39.8 µM [inhibitor, single point]
CCOC(=O)C(C(=O)OCC)N(C#N)c1nc(SC)nc(N(C)C)n1 39.8 µM [inhibitor, single point]
CCc1ccc(NC(=O)CN2C(=O)CSC2=O)cc1 37.7 µM [inhibitor, single point]
Cc1ccc(N/N=C2\COC(C)(C)CC2=O)cc1 39.8 µM [inhibitor, single point]
c1ccc(Nc2cc(Nc3ccccc3)[nH]n2)cc1 39.8 µM [inhibitor, single point]
C=CCN=C1SCC(=O)N1S(=O)(=O)c1ccc(C)cc1 20 µM [inhibitor, partial curve]
Cc1ccc(S(=O)(=O)Nc2cccc3c2CCCC3)cc1 39.8 µM [inhibitor, single point]
COc1ccc2nc3c(c(-c4ccccc4)c2c1)CCC3 31.6 µM [inhibitor, single point] and 35.5 µM [inhibitor, single point]
COc1ccc(-c2cc(C(F)(F)F)n3nc(C(=O)N4CCOCC4)c(Cl)c3n2)cc1 28.2 µM [inhibitor, single point]
Cc1cc(C(=O)Nc2sc3c(c2C#N)CCC3)no1 39.8 µM [inhibitor, single point]
CC(=O)NCCNc1ccnc(-c2ccccc2C(F)(F)F)n1 35.5 µM [inhibitor, partial curve]
CCOC(=O)CSc1nc2sc3c(c2c(=O)n1C1CCCCC1)CCN(C)C3 39.8 µM [inhibitor, single point]
Cc1cc(C(=O)Nc2ccccc2N2CCCCC2)no1 39.8 µM [inhibitor, single point]
COc1cccc2cc(C(=O)N3CCN(C(=O)c4ccccc4)CC3)c(=O)oc12 20 µM [inhibitor, partial curve]
O=C(CN(c1ccccn1)S(=O)(=O)c1ccc(F)cc1)Nc1ccc(F)cc1F 39.8 µM [inhibitor, single point]
COc1ccc(/C=C2\SC(=O)N(CCNC(=O)C3CCN(S(=O)(=O)c4cccs4)CC3)C2=O)cc1 39.8 µM [inhibitor, single point]
COC(=O)CCC(=O)OC1(C)C(=O)C2=CN(Cc3ccc4c(c3)OCO4)C(c3ccc(OC)cc3)=CC2=C(Br)C1=O (centres undefined) 3.55 µM [inhibitor, partial curve]

Potency, inactive:
Cc1coc(NC(=O)CSc2nc(-c3ccncc3)cc(C(F)(F)F)c2C#N)n1
C[C@H](N)c1nnc(SCc2c(Cl)cccc2Cl)o1
Cc1noc(C)c1C(=O)OCC(=O)c1c[nH]c2ccccc12
CNCC(O)CN1CCN(c2ccccc2OC)CC1 (centres undefined)
O=[N+]([O-])c1cccnc1N1CCCCC1
COc1cccc(CNC(=O)CCC2CCCN(c3cc(C)nc(N4CCCC4)n3)C2)c1 (centres undefined)
CCCC1=C(C(=O)OCC)C(c2sccc2C)n2ncnc2N1 (centres undefined)
Cc1cccc(N2C(=O)CC(c3ccc(F)cc3)C3=C2COC3=O)c1 (centres undefined)
C=CCn1c(SCC(=O)c2ccc(OC)cc2)nnc1-c1ccc2c(c1)OCO2
O=C(N/N=C\c1ccccc1OCc1ccccc1)c1ccco1
c1cc(-c2nnc3n2CCC3)[nH]n1
Cc1nnc(SCC(=O)N2CCCc3ccccc32)[nH]c1=O
CC(C)(C#CCN1CCCCC1)OCCOC(c1ccccc1)c1ccccc1
O=C(NC(=S)Nc1cccc2cccnc12)c1cccs1
CCn1nc(C)cc1C(=O)N1CCc2c([nH]c3ccccc23)C1c1cc(F)ccc1F (centres undefined)
NC(=O)C(=O)NN=C1CCC(c2ccccc2)CC1 (centres undefined)
CCN1CCN(C(c2cccs2)C(C)NS(=O)(=O)c2ccc(C)cc2)CC1 (centres undefined)
CO[C@]1(NC(=O)C(C(=O)O)c2ccc(O)cc2)C(=O)N2C(C(=O)O)=C(CSc3nnnn3C)COC21 (some centres undefined)
CCOc1ccc(C(=O)NCc2cccnc2)cc1[N+](=O)[O-]
COCCNC(=S)N(CCc1c(C)[nH]c2ccccc12)Cc1ccco1
